We go through 14 molecules from paper PMC12136788.

T1: UNK ZnF1-3 (human, UniProt Q9C0B0 31-174)
T1 sequence: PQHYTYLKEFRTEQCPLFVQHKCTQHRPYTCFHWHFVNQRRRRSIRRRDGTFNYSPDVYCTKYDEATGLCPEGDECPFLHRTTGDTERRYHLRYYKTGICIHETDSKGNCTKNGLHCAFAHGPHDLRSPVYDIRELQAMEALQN

B1: chr10:131964826:131964827:+_ENSG00000108010_ENST00000331244|hu_mus|FALSE|FALSE (ssRNA)
RNA: GGGAGUUCUACAGUCCGACGAUCAUUAGAGUACGUUUUGAGCCCCUGUCGAACUUCUUCAUCUGAGAAGAUAUCAAAGCUGCUGAACUGAAUAUUGUGUUUGUGAAGGAUUUCCACCAUCUGCUUGCUGAAACCACAGCGUGGCAACAGAGGAUUGAGCAUCA
B2: chr7:30656748:30656749:+_ENSG00000106105_ENST00000389266|hu_mus|motif|central (ssRNA)
RNA: GGGAGUUCUACAGUCCGACGAUCAUCAGGAGAUAUUCCAACCUUCGUGAGGUAGAGGUAGAUGCGGCCAAUAAAAUAGCCGGAUACUGAGUUGUUAAUCACACCCUGUUCAACAGCAUCUCCCAGACGCAUCUUCCGAGCAGACAACAGAGGAUUGAGCAUCA
B3: chr11:43861564:43861565:+_ENSG00000149084_ENST00000278353|hu_mus|FALSE|FALSE (ssRNA)
RNA: GGGAGUUCUACAGUCCGACGAUCCAGUUUUGUAGCUACAAGGUAUGGCAUGACACUCUGCACAAAGAUGCCCUUGCUCUUAUACUCCUCAUGGAGGCACUGAGAGAAGAAAUCUACAAAGGCCUUGGUUGCAGAGUAGAUUGUCAACAGAGGAUUGAGCAUCA
B4: chr1:45244325:45244326:+_ENSG00000142937_ENST00000396651|hu_hu|motif|central (ssRNA)
RNA: GGGAGUUCUACAGUCCGACGAUCUUACAUGGGUGAAGACAAAACAAGGAUUUAUUUGCCUUUGCGGGCCUUGAUUUUCCGGAGAUAGAACUCCAACUCUUUGCCCUCUAGCACAUAGCCAUCUGCUCGGCCACACUGUCCCGGCAACAGAGGAUUGAGCAUCA
B5: 22790243_22790363_661_ncRNA_ENSMUSG00000026784_ENSMUST00000139472|mouse|control|control (ssRNA)
RNA: GGGAGUUCUACAGUCCGACGAUCAGAAAAUCCUUCUGCUUUUCUAGGUUCAGUGGCUAGUCCUAUUCAUUGUAGCACAAGAGAGGGAAUAAAAAGGUCUGAUAGCAAAAAGACAAAAACAAACAACAACAACAAAACAGGCUGCAACAGAGGAUUGAGCAUCA
B6: chr1:37488339:37488340:+_ENSMUSG00000026111_ENSMUST00000027285|mus_mus|FALSE|FALSE (ssRNA)
RNA: GGGAGUUCUACAGUCCGACGAUCGGCAGGGUCAUCUCUGGCCCACUGGUCCUUUGUUUGCUUCCGGUAGUGAAAGUUUCUAUAAACCCUCUGAGGAGAGGUAAACAGGUAGAGCAUCUGCCAUGCAGCAAACUCAAAGUCCAUCAACAGAGGAUUGAGCAUCA
B7: chr17:1265283:1265284:-_ENSG00000108953_ENST00000571732|hu_mus|FALSE|FALSE (ssRNA)
RNA: GGGAGUUCUACAGUCCGACGAUCGUUAGCUGCUGGAAUGAGGUGUUUGUCCAGUACAUCCAGAAUGUCACAACAGAUUAACUUGAGCUCAGUUUCAACCAUUUGCCGGUACUCCCGAAUCAUCUUUAAUUUGUCCUCUCCUCCCAACAGAGGAUUGAGCAUCA
B8: chr5:40767622:40767623:-_ENSG00000132356_ENST00000397128|hu_hu|motif|central (ssRNA)
RNA: GGGAGUUCUACAGUCCGACGAUCAUCUUUGAUUGUGGCCCUCUUCAUGGGAUCCACCUGCAGCAUAUGUUUCAAAAGGCGGAUCACAGAAGGAUUUAAAUAUUGAGGGGUAUAGAAGAUCCCAUCACAUAUCUUCUUAAAAAGCAACAGAGGAUUGAGCAUCA
B9: chr6:114281168:114281169:-_ENSG00000196591_ENST00000368632|hu_hu|hu_hu_hu_mus_True|8_38 (ssRNA)
RNA: GGGAGUUCUACAGUCCGACGAUCUUCCAUUUUUCGGUAUAAACCAUAAUUUAGCAGCAAGUUAUGAGUCAUCCGGAUUCUAUGAGGCUUCAUGGGAUGACCCUGUCCAUAAUAAUAAUUGCCAAUAUCACAGAUUCAGUAGUACAACAGAGGAUUGAGCAUCA
B10: chr16:29654537:29654538:+_ENSMUSG00000038084_ENSMUST00000160597|mus_mus|FALSE|FALSE (ssRNA)
RNA: GGGAGUUCUACAGUCCGACGAUCUUACAUCGAGUGUAAGGUUUAAAAAUAAUACAAAGUCCAUUCACAGUGCACAGUGACGACAUGGUUAAGUUUUAAAUAUUUAGAUAUCAAAUAGCCAUGAUCGUUUAGAAGGUAAGCAUACAACAGAGGAUUGAGCAUCA
B11: chr3:133011071:133011072:+_ENSMUSG00000028013_ENSMUST00000029644|mus_mus|FALSE|FALSE (ssRNA)
RNA: GGGAGUUCUACAGUCCGACGAUCCAAAGUCCCAAGGAUCUUCACAUGGACCACGUCUCCACGGGAAAGAACCUUUGAGCCUAUUUCACAGACGUCAAUGGGAUCAUUAUCCCCACAGCAGUCGGUGCUCUUAUCUCUUAGGUGCAACAGAGGAUUGAGCAUCA
B12: chr20:33097842:33097843:+_ENSG00000078747_ENST00000374864|hu_mus|FALSE|FALSE (ssRNA)
RNA: GGGAGUUCUACAGUCCGACGAUCUAAAAAUAUUAAAUAGCCAAGCCCUAUAGAACUAGGGCCAGGACUACUUCAAAUAUAACUUCUGUAUUUUAAAAAUAUAGGGCAGAAAGCCUUUUGGAUGAUAUUUAUACAUUUUCACAUCAACAGAGGAUUGAGCAUCA
B13: chr11:50626376:50626377:-_ENSMUSG00000044807_ENSMUST00000109135|mus_hu|motif|central (ssRNA)
RNA: GGGAGUUCUACAGUCCGACGAUCAAAUCCUUCGUUAGUACAAUGAAAGGCUAUAAUUAAACUAAAAUCUCUCCUGGCUCGGAUGAGCUACCAGACAUGCAGCCUGAGAUUCUGCCAAAUACAUCCCUUCUGCAACAGAUAACACAACAGAGGAUUGAGCAUCA
B14: chr7:141438946:141438947:+_ENSG00000106028_ENST00000265304|hu_mus|hu_hu_hu_mus_True|1_38 (ssRNA)
RNA: GGGAGUUCUACAGUCCGACGAUCGACGAAAUACCUGUAACACAGGUCUUCGAAACAUGGCUUCUGUUUUUCUUACAACCUAAUCUUUAGGCUUUUCCUGACGAUCUGAAAGAAAAGAGAAAAAUGAUAAAUCAAGAACUUCCGCAACAGAGGAUUGAGCAUCA

The other results are listed elsewhere or left out.

For the assay, the target named is T1, UNK ZnF1-3. The assay is described as follows: nsRBNS (natural sequence RNA bind-n-seq); RBNS binding buffer (assumed for nsRBNS): 25 mM Tris pH 7.5, 150 mM KCl, 3 mM MgCl2, 0.01% Triton X-100, 500 ug/ml BSA, 20 U/ml SUPERase-In, 4 C; UNK is unkempt and MSI1 is Musashi-1; names of the RNAs are library labels; protein concentration not given here; high values mean tight binding.
B1 came in with a binding signal of 0.682 enrichment R.

Molecule B2 returned a binding signal of 1.07 enrichment R. For B3 the value was 0.748 enrichment R; for B4, 0.835 enrichment R; for B5, 2.17 enrichment R. In the case of B6, the binding signal worked out at 0.929 enrichment R.

With B7, the binding signal came to 1.35 enrichment R.

B8 had a binding signal of 0.981 enrichment R. Regarding B9, the binding signal amounted to 0.886 enrichment R. For B10 the value was 0.995 enrichment R; for B11, 0.607 enrichment R. Consider B12, for which the binding signal was found to be 0.861 enrichment R. Molecule B13 showed a binding signal of 1.25 enrichment R. B14 showed a binding signal of 0.416 enrichment R.
